Source: publication PMC4336329 (PLoS ONE, 2015)
Screen size: about 310,000 compounds; about 2,200 (0.71%) showed an effect of 50% or more. Effects have a minus sign here. This is one part of the list.

target: human ether-à-go-go-related gene (hERG) potassium channel (human, UniProt Q12809); test: primary screen, population patch clamp on CHO cells stably expressing hERG
Sequence (Q12809 whole entry, looked up): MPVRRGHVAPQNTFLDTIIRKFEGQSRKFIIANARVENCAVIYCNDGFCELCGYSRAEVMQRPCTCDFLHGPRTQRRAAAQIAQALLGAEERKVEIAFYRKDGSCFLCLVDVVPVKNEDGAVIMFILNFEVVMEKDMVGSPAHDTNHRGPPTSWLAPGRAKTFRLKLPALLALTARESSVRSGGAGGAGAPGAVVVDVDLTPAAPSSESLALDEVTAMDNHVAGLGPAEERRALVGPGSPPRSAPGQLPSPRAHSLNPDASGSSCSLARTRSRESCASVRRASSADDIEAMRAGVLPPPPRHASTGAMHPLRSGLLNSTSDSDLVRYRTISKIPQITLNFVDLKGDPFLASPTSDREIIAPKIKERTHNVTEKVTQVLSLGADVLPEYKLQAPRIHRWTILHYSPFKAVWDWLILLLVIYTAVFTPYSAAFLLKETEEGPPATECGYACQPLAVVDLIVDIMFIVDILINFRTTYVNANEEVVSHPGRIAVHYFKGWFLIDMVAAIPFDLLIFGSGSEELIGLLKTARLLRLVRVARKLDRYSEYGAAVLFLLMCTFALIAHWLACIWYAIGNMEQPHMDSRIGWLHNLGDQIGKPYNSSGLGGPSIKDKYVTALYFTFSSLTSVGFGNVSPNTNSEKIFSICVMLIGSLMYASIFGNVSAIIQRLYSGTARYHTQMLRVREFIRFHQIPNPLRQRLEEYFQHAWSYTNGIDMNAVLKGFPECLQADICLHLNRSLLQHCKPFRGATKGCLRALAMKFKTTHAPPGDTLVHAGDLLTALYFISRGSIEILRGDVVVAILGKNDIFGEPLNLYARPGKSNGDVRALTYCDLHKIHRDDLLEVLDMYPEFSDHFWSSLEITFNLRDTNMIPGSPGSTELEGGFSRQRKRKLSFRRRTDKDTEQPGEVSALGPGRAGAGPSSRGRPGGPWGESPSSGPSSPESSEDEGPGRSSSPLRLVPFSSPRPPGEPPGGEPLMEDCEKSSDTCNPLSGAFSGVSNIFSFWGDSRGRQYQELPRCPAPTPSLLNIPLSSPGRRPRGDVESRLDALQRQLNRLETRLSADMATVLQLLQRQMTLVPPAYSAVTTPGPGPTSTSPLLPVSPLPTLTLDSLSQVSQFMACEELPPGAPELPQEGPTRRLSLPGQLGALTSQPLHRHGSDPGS

Row | Structure (SMILES) | hERG current change (%, negative = inhibition) at 1uM
1 | O=C(C/C(=N/O)c1ccccc1O)C(F)F | 9.32%
2 | O=C(CSc1nc2ncc(Cl)cc2[nH]1)NCC(=O)Nc1ccc(F)c(F)c1F | 5.25%
3 | Cc1ccc(S(=O)(=O)N2CCOCC2)cc1NC(=O)Cn1ccsc1=N.Cl | 1.95%
4 | O=[N+]([O-])c1ccc(CS(=O)(=O)c2ccc(Cl)cc2)cc1 | 4.47%
5 | O=C(O)c1cccc(S(=O)(=O)N2CCN(c3ccccn3)CC2)c1 | 13.4%
6 | COc1ccc(-c2nnc(SCC(=O)Nc3nncs3)o2)cc1 | 17%
7 | COc1ccc(/C=C2\SC(=O)NC2=S)cc1OC | 0.936%
8 | Cl.c1ccc(-c2csc(N3CCOCC3)n2)cc1 | 9.81%
9 | CCOC(=O)c1c(-c2ccccc2)cn2c(C)cc(C)nc12 | 11.3%
10 | C=CCN1CN=C(NS(=O)(=O)c2ccc(NC(C)=O)cc2)NC1 | 9.29%
11 | CCCCNC(=S)N1CCN(c2ccccc2Cl)CC1 | 8.55%
12 | CCC(c1nnnn1CCOC)N1CCN(c2nc3ccccc3s2)CC1 (stereo not drawn) | -0.352%
13 | COc1ccc(CNc2ncccn2)cc1OC | 10.5%
14 | CCOCCc1nnc(NC(=O)C2CC(=O)N(CCc3ccc(F)cc3)C2)s1 (stereo not drawn) | 12.2%
15 | COc1ccc(-n2c(SCC#N)nc3ccccc3c2=O)cc1 | 13.4%
16 | O=C1c2ccccc2C(=O)N1CCCc1nc(-c2ccccn2)no1 | -4.38%
17 | N#Cc1nc(-c2ccccc2)oc1N1CCCCC1 | 5.29%
18 | O=C(CSc1nc2ccc(N3CCOCC3)cc2c(=O)n1CCc1ccccc1)NCC1CCCO1 (stereo not drawn) | -10.6%
19 | Cc1cc(C)c2c(N)c(C(=O)c3ccc(Br)cc3)oc2n1 | 12.1%
20 | CC(=O)N/C(=N/c1nc(C)cc(C)n1)Nc1cccc(C)c1C | 8.41%
21 | CC(C)c1nnc(NC(=O)CCC(=O)NC2CCCc3ccccc32)s1 (stereo not drawn) | 13.5%
22 | CCN(CC)c1ccc(S(=O)(=O)N2CCOCC2)cc1NC(=O)CSc1n[nH]c(N)n1 | 2.8%
23 | COc1ccc(CCNC(=O)C(=O)c2cn(CC(=O)N3CCOCC3)c3ccccc23)cc1OC | 5.94%

Row | Structure (SMILES) | hERG current change (%, negative = inhibition) at 1uM
24 | O=C(CS(=O)(=O)c1c[nH]c2ccccc12)Nc1ccc2c(c1)OCCO2 | 7.63%
25 | CCOc1ccc(NC(=O)Cn2cc(C(=O)C3CC3)c3ccccc32)cc1 | 10.4%
26 | Cc1nnc(-c2ccco2)c2cn(-c3cccc(Br)c3)nc12 | 9.82%
27 | C=CCC(C=C)S(=O)(=O)c1ccc(C)cc1 (stereo not drawn) | 4.84%
28 | CC(C)c1ccc(/C=C/C(=O)Nc2ccc(CN3CCOCC3)cc2)cc1 | -1.74%
29 | COc1ccc(OC(=O)COc2ccc(Cl)cc2)cc1 | 11.7%
30 | O=C(NCc1cc2ccccc2[nH]1)C1CCC(=O)N(CCCN2CCCC2=O)C1 (stereo not drawn) | 10.1%
31 | O=C(COC(=O)/C=C/c1ccc([N+](=O)[O-])cc1)NCC1CCCO1 (stereo not drawn) | 12.3%
32 | Cc1cc(C(=O)COc2ccccc2[N+](=O)[O-])c(C)n1C1CC1 | 14.5%
33 | CCOC(=O)C1C(=O)NC(N2CCN(c3ccccc3)CC2)=NC1c1ccco1 (stereo not drawn) | 7.35%
34 | O=C(CSc1ccc(-c2ccc(Br)cc2)nn1)NC1CCCC1 | 12.4%
35 | CCCN1CCN(C(=O)c2ccc(-c3ccc([N+](=O)[O-])cc3)o2)CC1 | -70.1%
36 | CN(c1ccc(C(=O)NCc2ccco2)cc1)S(C)(=O)=O | 7.2%
37 | O=C(CCn1c(SCC(=O)NCc2ccco2)nc2ccccc2c1=O)NCCc1ccccc1 | -9.69%
38 | COc1ccc2cc(C(=O)NCc3ccco3)c(=O)oc2c1 | 21.6%
39 | Cc1ccc(S(=O)(=O)/N=C(/Nc2ccc3[nH]c(=O)[nH]c3c2)c2ccc(F)cc2)cc1 | 3.51%
40 | Cc1noc(C)c1-c1nc(CS(=O)(=O)c2ccccc2)no1 | 2.56%
41 | CC(=O)C1=C(O)C(=O)N(CCc2c[nH]c3ccccc23)C1c1ccc(C)cc1 (stereo not drawn) | 19.7%
42 | COc1ccc(CCNC(=O)CN2C(=O)c3cccc4cccc(c34)C2=O)cc1OC | 8.16%
43 | COc1ccc(C)cc1NC(=S)NNC(=O)c1ccccc1Cl | 6.92%
44 | O=C(CSc1ncc(-c2ccccc2)n1-c1ccccc1)NCc1ccco1 | 6.85%
45 | COc1ccc(CNC(=O)C(c2cccs2)N(Cc2ccco2)C(=O)Cc2cccs2)cc1 (stereo not drawn) | 11.2%
